# Reference: the supplement of paper PMC8728848
# This is one part of the list.
# Experiments:
# Assay in all cases: glycan array binding signal (z-score within array); higher = stronger binding
# Conditions in all cases: glycan notation: IUPAC condensed, linker removed
# [1] = target: Fuc(a1-2)[GalNAc(a1-3)]Gal(b1-3)GlcNAc(b1-3)GalNAc
# Outline: (§1)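 The Consortium for Functional Glycomics database supplied 3228 glycan arrays, of which those lacking an available protein sequence were dropped. The binding signal, a within-array Z-score, was averaged across arrays of the same protein sequence and across linkers. Negative scores can be read as non-binding.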
# [2] = target: Fuc(a1-2)[GalNAc(a1-3)]Gal(b1-3)GlcNAc(b1-6)GalNAc
# Outline: as §1
# [3] = target: Fuc(a1-2)[GalNAc(a1-3)]Gal(b1-4)Glc
# Outline: as §1
# [4] = target: Fuc(a1-2)[GalNAc(a1-3)]Gal(b1-4)GlcNAc
# Outline: as §1
# [5] = target: Fuc(a1-2)[GalNAc(a1-3)]Gal(b1-4)GlcNAc(b1-2)Man
# Outline: as §1
# [6] = target: Fuc(a1-2)[GalNAc(a1-3)]Gal(b1-4)GlcNAc(b1-2)Man(a1-3)[Fuc(a1-2)[GalNAc(a1-3)]Gal(b1-4)GlcNAc(b1-2)Man(a1-6)]Man(b1-4)GlcNAc(b1-4)GlcNAc
# Outline: as §1
# [7] = target: Fuc(a1-2)[GalNAc(a1-3)]Gal(b1-4)GlcNAc(b1-2)Man(a1-3)[Fuc(a1-2)[GalNAc(a1-3)]Gal(b1-4)GlcNAc(b1-2)Man(a1-6)]Man(b1-4)GlcNAc(b1-4)[Fuc(a1-6)]GlcNAc
# Outline: as §1
# [8] = target: Fuc(a1-2)[GalNAc(a1-3)]Gal(b1-4)GlcNAc(b1-3)Gal(b1-4)GlcNAc
# Outline: as §1
# [9] = target: Fuc(a1-2)[GalNAc(a1-3)]Gal(b1-4)GlcNAc(b1-3)Gal(b1-4)GlcNAc(b1-3)Gal(b1-4)GlcNAc
# Outline: as §1
# [10] = target: Fuc(a1-2)[GalNAc(a1-3)]Gal(b1-4)GlcNAc(b1-3)GalNAc
# Outline: as §1
# [11] = target: Fuc(a1-2)[GalNAc(a1-3)]Gal(b1-4)GlcNAc(b1-3)[Fuc(a1-2)[GalNAc(a1-3)]Gal(b1-4)GlcNAc(b1-6)]GalNAc
# Outline: as §1
# [12] = target: Fuc(a1-2)[GalNAc(a1-3)]Gal(b1-4)GlcNAc(b1-6)GalNAc
# Outline: as §1
# [13] = target: Fuc(a1-2)[GalNAc(a1-3)]Gal(b1-4)[Fuc(a1-3)]GlcNAc
# Outline: as §1
# [14] = target: Fuc(a1-2)[GalNAc(a1-3)]Gal(b1-4)[Fuc(a1-3)]GlcNAc(b1-3)GalNAc
# Outline: as §1
# [15] = target: Fuc(a1-2)[GalNAc(a1-4)]Gal(b1-4)GlcNAc
# Outline: as §1
# [16] = target: Fuc(a1-2)[GalNAc(b1-3)]Gal
# Outline: as §1
# [17] = target: Fuc(a1-3)GlcNAc
# Outline: as §1
# [18] = target: Fuc(a1-3)[Gal(b1-4)]Glc6S
# Outline: as §1
# [19] = target: Fuc(a1-3)[Gal(b1-4)]GlcNAc
# Outline: as §1
# [20] = target: Fuc(a1-3)[Gal(b1-4)]GlcNAc(b1-2)Man
# Outline: as §1
# [21] = target: Fuc(a1-3)[Gal(b1-4)]GlcNAc(b1-2)Man(a1-3)[Fuc(a1-3)[Gal(b1-4)]GlcNAc(b1-2)Man(a1-6)]Man(b1-4)GlcNAc(b1-4)GlcNAc
# Outline: as §1
# [22] = target: Fuc(a1-3)[Gal(b1-4)]GlcNAc(b1-2)Man(a1-3)[Fuc(a1-3)[Gal(b1-4)]GlcNAc(b1-2)Man(a1-6)]Man(b1-4)GlcNAc(b1-4)[Fuc(a1-6)]GlcNAc
# Outline: as §1
# [23] = target: Fuc(a1-3)[Gal(b1-4)]GlcNAc(b1-3)Gal(b1-3)[Fuc(a1-4)]GlcNAc
# Outline: as §1
# [24] = target: Fuc(a1-3)[Gal(b1-4)]GlcNAc(b1-3)Gal(b1-4)[Fuc(a1-3)]GlcNAc
# Outline: as §1
# [25] = target: Fuc(a1-3)[Gal(b1-4)]GlcNAc(b1-3)Gal(b1-4)[Fuc(a1-3)]GlcNAc(b1-3)Gal(b1-4)[Fuc(a1-3)]GlcNAc
# Outline: as §1
# [26] = target: Fuc(a1-3)[Gal(b1-4)]GlcNAc(b1-3)GalNAc
# Outline: as §1
# [27] = target: Fuc(a1-3)[Gal(b1-4)]GlcNAc(b1-6)GalNAc
# Outline: as §1
# [28] = target: Fuc(a1-3)[Gal(b1-4)]GlcNAc(b1-6)[Gal(b1-3)GlcNAc(b1-3)]Gal(b1-4)Glc
# Outline: as §1
# [29] = target: Fuc(a1-3)[Gal(b1-4)]GlcNAc6S
# Outline: as §1
# [30] = target: Fuc(a1-3)[Gal3S(b1-4)]Glc
# Outline: as §1
# [31] = target: Fuc(a1-3)[Gal3S(b1-4)]GlcNAc
# Outline: as §1
# [32] = target: Fuc(a1-3)[Gal3S(b1-4)]GlcNAc6S
# Outline: as §1
# [33] = target: Fuc(a1-3)[GalNAc(b1-4)]GlcNAc
# Outline: as §1
# [34] = target: Fuc(a1-3)[GalNAc(b1-4)]GlcNAc6S
# Outline: as §1
# [35] = target: Fuc(a1-4)GlcNAc
# Outline: as §1
# [36] = target: Fuc(b1-3)GlcNAc
# Outline: as §1
# [37] = target: Gal(a1-2)Gal
# Outline: as §1
# [38] = target: Gal(a1-3)Gal
# Outline: as §1
# [39] = target: Gal(a1-3)Gal(b1-3)GlcNAc
# Outline: as §1
# [40] = target: Gal(a1-3)Gal(b1-3)GlcNAc(b1-2)Man
# Outline: as §1
# [41] = target: Gal(a1-3)Gal(b1-3)GlcNAc(b1-2)Man(a1-3)[Gal(a1-3)Gal(b1-3)GlcNAc(b1-2)Man(a1-6)]Man(b1-4)GlcNAc(b1-4)GlcNAc
# Outline: as §1
# [42] = target: Gal(a1-3)Gal(b1-3)GlcNAc(b1-3)GalNAc
# Outline: as §1
# [43] = target: Gal(a1-3)Gal(b1-3)GlcNAc(b1-6)GalNAc
# Outline: as §1
# [44] = target: Gal(a1-3)Gal(b1-3)[Fuc(a1-4)]GlcNAc(b1-2)Man(a1-3)[Gal(a1-3)Gal(b1-3)[Fuc(a1-4)]GlcNAc(b1-2)Man(a1-6)]Man(b1-4)GlcNAc(b1-4)GlcNAc
# Outline: as §1
# [45] = target: Gal(a1-3)Gal(b1-4)Glc
# Outline: as §1
binder,measurement,setting,value
VLRB.aGPA.23-GCN4-biotin (Petromyzon marinus) (protein) ACPSQCSCSGTEVNCAGKSLASVPAGIPTTTRVLYLNSNQITKLEPGVFDRLANLRELHLWGNQLVSLPPGVFDNLANLEKLWLNSNQLTSLPAGLFDRLVNLEHLGLCCMKLTELPSGAFDKLTRLKQLGLDQNQLKSIPDGAFARLPSLTHVWLHTNPWDCQCTDILYLSGWVAQHSSIVGEGWPWRHSPDSAKCSGTNTPVRAVTEASTSPSKCP,glycan array binding signal (z-score),[1],-0.064
same,glycan array binding signal (z-score),[2],-0.09
same,glycan array binding signal (z-score),[3],-0.077
same,glycan array binding signal (z-score),[4],-0.078
same,glycan array binding signal (z-score),[5],-0.082
same,glycan array binding signal (z-score),[6],-0.077
same,glycan array binding signal (z-score),[7],-0.073
same,glycan array binding signal (z-score),[8],-0.079
same,glycan array binding signal (z-score),[9],-0.061
same,glycan array binding signal (z-score),[10],-0.078
same,glycan array binding signal (z-score),[11],-0.081
same,glycan array binding signal (z-score),[12],-0.081
same,glycan array binding signal (z-score),[13],-0.06
same,glycan array binding signal (z-score),[14],0.368
same,glycan array binding signal (z-score),[15],-0.078
same,glycan array binding signal (z-score),[16],-0.082
same,glycan array binding signal (z-score),[17],-0.085
same,glycan array binding signal (z-score),[18],-0.077
same,glycan array binding signal (z-score),[19],-0.075
same,glycan array binding signal (z-score),[20],-0.074
same,glycan array binding signal (z-score),[21],-0.079
same,glycan array binding signal (z-score),[22],-0.078
same,glycan array binding signal (z-score),[23],-0.071
same,glycan array binding signal (z-score),[24],-0.077
same,glycan array binding signal (z-score),[25],-0.076
same,glycan array binding signal (z-score),[26],-0.077
same,glycan array binding signal (z-score),[27],-0.061
same,glycan array binding signal (z-score),[28],-0.079
same,glycan array binding signal (z-score),[29],-0.062
same,glycan array binding signal (z-score),[30],-0.075
same,glycan array binding signal (z-score),[31],-0.065
same,glycan array binding signal (z-score),[32],-0.082
same,glycan array binding signal (z-score),[33],-0.065
same,glycan array binding signal (z-score),[34],-0.084
same,glycan array binding signal (z-score),[35],-0.053
same,glycan array binding signal (z-score),[36],-0.075
same,glycan array binding signal (z-score),[37],0.157
same,glycan array binding signal (z-score),[38],-0.08
same,glycan array binding signal (z-score),[39],-0.071
same,glycan array binding signal (z-score),[40],-0.086
same,glycan array binding signal (z-score),[41],-0.065
same,glycan array binding signal (z-score),[42],-0.084
same,glycan array binding signal (z-score),[43],-0.073
same,glycan array binding signal (z-score),[44],-0.077
same,glycan array binding signal (z-score),[45],-0.081
